# Assay results published in the supplement of paper PMC8728848.
# The list shows a part of the results.
# B1: PX9937D-bvu-500-26-500 (Bacteroides vulgatus) (protein)
# chain: DPVSDITDLNYWKTPEQFDSFVFGLHSRFRSHSWNMFLLGEARSDVFGGIPFGGEATQGMERFPYNTLNAENPGISGFGDLYQNINQMNLFISRTLHTDVLTESARNYYLGQVYGLRAYYMYQLYRSWGDVVFTEEPSLGFEVGKLAKAATPAAEIFEQVKKDIESSLSYFGSDYTIKEKKSLWSKAATLMLKADVYLWSAHRDGGEGDARTAKNALVDIQNNISRSNLDLMDTYQGVFAYDNKGNKEIIFTIHNELFEYNLWNGNNDLFPQADYLGKFYNADGTLINTSVENNFGIMRLMVKLENFKKFLPGDTRRDVTLKDVYNKVENGKLELVGVYPHKYWGVMNGSTRVRCDDYPIYRYSDLLLMLAEAKVLLGEDPATEINRVRRRAFGDAYDASTVGFPNQEVDKRPADAVLQERLFEFMLEGKRWYDLRRFGDSYVLDYTPAEPARLLWPINQGALTNNPLLKQTVGY
# What was measured:
# Assay in all cases: glycan array binding signal (z-score within array); higher = stronger binding
# Settings in all cases: glycan notation: IUPAC condensed, linker removed
# [1] = target: Neu5Ac(a2-6)Gal(b1-4)GlcNAc(b1-6)GalNAc
# In short: (§1)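 Glycan array data were curated from 3228 arrays in the Consortium for Functional Glycomics database and kept only where the protein sequence was available. Glycan names were converted to IUPAC-condensed notation, and columns mapping to the same glycan were averaged. The binding signal is a within-array Z-score, averaged across arrays of the same protein sequence at different concentrations or buffers and across linkers. Negative Z-scores can be read as non-binding.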
# [2] = target: Neu5Ac(a2-6)Gal(b1-4)GlcNAc(b1-6)[Gal(b1-3)GlcNAc(b1-3)]Gal(b1-4)Glc
# In short: as §1
# [3] = target: Neu5Ac(a2-6)Gal(b1-4)GlcNAc(b1-6)[Gal(b1-3)]GalNAc
# In short: as §1
# [4] = target: Neu5Ac(a2-6)Gal(b1-4)GlcNAc6S
# In short: as §1
# Neu5Ac(a2-6)GalNAc = target: Neu5Ac(a2-6)GalNAc
# In short: as §1
# [5] = target: Neu5Ac(a2-6)GalNAc(b1-4)GlcNAc
# In short: as §1
# [6] = target: Neu5Ac(a2-6)GalNAc(b1-4)GlcNAc6S
# In short: as §1
# [7] = target: Neu5Ac(a2-6)GlcNAc(b1-4)GlcNAc
# In short: as §1
# [8] = target: Neu5Ac(a2-6)GlcNAc(b1-4)GlcNAc(b1-4)GlcNAc
# In short: as §1
# Neu5Ac(a2-8)Neu5Ac = target: Neu5Ac(a2-8)Neu5Ac
# In short: as §1
# [9] = target: Neu5Ac(a2-8)Neu5Ac(a2-3)Gal(b1-3)GalNAc(b1-4)[Neu5Ac(a2-3)]Gal(b1-4)Glc
# In short: as §1
# [10] = target: Neu5Ac(a2-8)Neu5Ac(a2-3)Gal(b1-3)GalNAc(b1-4)[Neu5Ac(a2-8)Neu5Ac(a2-3)]Gal(b1-4)Glc
# In short: as §1
# [11] = target: Neu5Ac(a2-8)Neu5Ac(a2-3)Gal(b1-4)Glc
# In short: as §1
# [12] = target: Neu5Ac(a2-8)Neu5Ac(a2-3)Gal(b1-4)GlcNAc
# In short: as §1
# [13] = target: Neu5Ac(a2-8)Neu5Ac(a2-3)[Gal(b1-3)GalNAc(b1-4)]Gal(b1-4)Glc
# In short: as §1
# [14] = target: Neu5Ac(a2-8)Neu5Ac(a2-3)[GalNAc(b1-4)]Gal(b1-4)Glc
# In short: as §1
# [15] = target: Neu5Ac(a2-8)Neu5Ac(a2-8)Neu5Ac
# In short: as §1
# [16] = target: Neu5Ac(a2-8)Neu5Ac(a2-8)Neu5Ac(a2-3)Gal(b1-4)Glc
# In short: as §1
# [17] = target: Neu5Ac(a2-8)Neu5Ac(a2-8)Neu5Ac(a2-3)[Gal(b1-3)GalNAc(b1-4)]Gal(b1-4)Glc
# In short: as §1
# [18] = target: Neu5Ac(a2-8)Neu5Ac(a2-8)Neu5Ac(a2-3)[GalNAc(b1-4)]Gal(b1-4)Glc
# In short: as §1
# [19] = target: Neu5Ac(a2-8)Neu5Ac(a2-8)Neu5Ac(a2-8)Neu5Ac(a2-3)[GalNAc(b1-4)]Gal(b1-4)Glc
# In short: as §1
# [20] = target: Neu5Ac(a2-8)Neu5Gc(a2-3)Gal(b1-4)GlcNAc
# In short: as §1
# [21] = target: Neu5Ac(b2-6)Gal(b1-4)GlcNAc
# In short: as §1
# Neu5Ac(b2-6)GalNAc = target: Neu5Ac(b2-6)GalNAc
# In short: as §1
# [22] = target: Neu5Ac9Ac(a2-3)Gal(b1-3)GlcNAc
# In short: as §1
# [23] = target: Neu5Ac9Ac(a2-3)Gal(b1-4)GlcNAc
# In short: as §1
# [24] = target: Neu5Ac9Ac(a2-6)Gal(b1-4)GlcNAc
# In short: as §1
# [25] = target: Neu5Gc(a2-3)Gal(b1-3)GlcNAc
# In short: as §1
# [26] = target: Neu5Gc(a2-3)Gal(b1-3)[Fuc(a1-4)]GlcNAc
# In short: as §1
# Neu5Gc(a2-3)Gal(b1-4)Glc = target: Neu5Gc(a2-3)Gal(b1-4)Glc
# In short: as §1
# [27] = target: Neu5Gc(a2-3)Gal(b1-4)GlcNAc
# In short: as §1
# [28] = target: Neu5Gc(a2-3)Gal(b1-4)GlcNAc(b1-3)Gal(b1-4)GlcNAc(b1-2)Man(a1-3)[Neu5Gc(a2-3)Gal(b1-4)GlcNAc(b1-3)Gal(b1-4)GlcNAc(b1-2)Man(a1-6)]Man(b1-4)GlcNAc(b1-4)GlcNAc
# In short: as §1
# [29] = target: Neu5Gc(a2-3)Gal(b1-4)[Fuc(a1-3)]GlcNAc
# In short: as §1
# [30] = target: Neu5Gc(a2-6)Gal(b1-4)GlcNAc
# In short: as §1
# Neu5Gc(a2-6)GalNAc = target: Neu5Gc(a2-6)GalNAc
# In short: as §1
# [31] = target: Neu5Gc(a2-8)Neu5Ac(a2-3)Gal(b1-4)GlcNAc
# In short: as §1
# [32] = target: Neu5Gc(a2-8)Neu5Gc(a2-3)Gal(b1-4)GlcNAc
# In short: as §1
# [33] = target: Neu5Gc(a2-8)Neu5Gc(a2-3)Gal(b1-4)GlcNAc(b1-3)Gal(b1-4)GlcNAc
# In short: as §1
binder,measurement,setting,value
B1,glycan array binding signal (z-score),[1],-0.488
same,glycan array binding signal (z-score),[2],-0.417
same,glycan array binding signal (z-score),[3],-0.138
same,glycan array binding signal (z-score),[4],0.18
same,glycan array binding signal (z-score),Neu5Ac(a2-6)GalNAc,-0.272
same,glycan array binding signal (z-score),[5],-0.453
same,glycan array binding signal (z-score),[6],-0.324
same,glycan array binding signal (z-score),[7],-0.483
same,glycan array binding signal (z-score),[8],0.037
same,glycan array binding signal (z-score),Neu5Ac(a2-8)Neu5Ac,-0.345
same,glycan array binding signal (z-score),[9],-0.051
same,glycan array binding signal (z-score),[10],-0.627
same,glycan array binding signal (z-score),[11],-0.468
same,glycan array binding signal (z-score),[12],-0.636
same,glycan array binding signal (z-score),[13],-0.284
same,glycan array binding signal (z-score),[14],0.198
same,glycan array binding signal (z-score),[15],-0.49
same,glycan array binding signal (z-score),[16],-0.293
same,glycan array binding signal (z-score),[17],0.02
same,glycan array binding signal (z-score),[18],-0.193
same,glycan array binding signal (z-score),[19],0.072
same,glycan array binding signal (z-score),[20],10.6
same,glycan array binding signal (z-score),[21],-0.299
same,glycan array binding signal (z-score),Neu5Ac(b2-6)GalNAc,0.042
same,glycan array binding signal (z-score),[22],-0.36
same,glycan array binding signal (z-score),[23],-0.486
same,glycan array binding signal (z-score),[24],-0.121
same,glycan array binding signal (z-score),[25],-0.055
same,glycan array binding signal (z-score),[26],-0.231
same,glycan array binding signal (z-score),Neu5Gc(a2-3)Gal(b1-4)Glc,-0.135
same,glycan array binding signal (z-score),[27],-0.415
same,glycan array binding signal (z-score),[28],0.552
same,glycan array binding signal (z-score),[29],-0.703
same,glycan array binding signal (z-score),[30],-0.608
same,glycan array binding signal (z-score),Neu5Gc(a2-6)GalNAc,-0.419
same,glycan array binding signal (z-score),[31],0.105
same,glycan array binding signal (z-score),[32],-0.127
same,glycan array binding signal (z-score),[33],-0.056
